Assay results reported in the antibiotic and cytotoxicity screens of Wong et al. (2023).
Some of the results follow.

Experiments:
HSkMC = human skeletal muscle cells; assay: cytotoxicity call (relative viability < 0.9); settings: 10 µM
HepG2 = assay: cytotoxicity call (relative viability < 0.9); settings: 10 µM
S. aureus RN4220 = assay: growth inhibition call (relative growth <= 0.2); settings: 50 µM

Cn1cnc(S(=O)(=O)N[C@H]2CC[C@@H](CC(=O)Nc3ccccc3)O[C@H]2CO)c1
inactive: cytotoxicity call (HSkMC) | cytotoxicity call (HepG2) | growth inhibition call (S. aureus RN4220)

C[C@@H]1CN([C@H](C)CO)C(=O)c2cc(NC(=O)Nc3ccc(F)cc3)ccc2O[C@H]1CN(C)S(C)(=O)=O
inactive: cytotoxicity call (HSkMC) | cytotoxicity call (HepG2) | growth inhibition call (S. aureus RN4220)

C[C@H](CO)N1C[C@H](C)[C@@H](CN(C)S(=O)(=O)c2ccccc2)Oc2c(NS(=O)(=O)c3ccc(F)cc3)cccc2C1=O
inactive: cytotoxicity call (HSkMC) | cytotoxicity call (HepG2) | growth inhibition call (S. aureus RN4220)
